Results from article PMC4336329 (PLoS ONE, 2015).
Screen size: about 310,000 compounds; about 2,200 (0.71%) showed an effect of 50% or more. The effect is printed as a negative number. The list shows a part of the results.

molecular target: human ether-à-go-go-related gene (hERG) potassium channel (human, UniProt Q12809); test: primary screen, population patch clamp on CHO cells stably expressing hERG
Sequence (Q12809 whole entry, looked up): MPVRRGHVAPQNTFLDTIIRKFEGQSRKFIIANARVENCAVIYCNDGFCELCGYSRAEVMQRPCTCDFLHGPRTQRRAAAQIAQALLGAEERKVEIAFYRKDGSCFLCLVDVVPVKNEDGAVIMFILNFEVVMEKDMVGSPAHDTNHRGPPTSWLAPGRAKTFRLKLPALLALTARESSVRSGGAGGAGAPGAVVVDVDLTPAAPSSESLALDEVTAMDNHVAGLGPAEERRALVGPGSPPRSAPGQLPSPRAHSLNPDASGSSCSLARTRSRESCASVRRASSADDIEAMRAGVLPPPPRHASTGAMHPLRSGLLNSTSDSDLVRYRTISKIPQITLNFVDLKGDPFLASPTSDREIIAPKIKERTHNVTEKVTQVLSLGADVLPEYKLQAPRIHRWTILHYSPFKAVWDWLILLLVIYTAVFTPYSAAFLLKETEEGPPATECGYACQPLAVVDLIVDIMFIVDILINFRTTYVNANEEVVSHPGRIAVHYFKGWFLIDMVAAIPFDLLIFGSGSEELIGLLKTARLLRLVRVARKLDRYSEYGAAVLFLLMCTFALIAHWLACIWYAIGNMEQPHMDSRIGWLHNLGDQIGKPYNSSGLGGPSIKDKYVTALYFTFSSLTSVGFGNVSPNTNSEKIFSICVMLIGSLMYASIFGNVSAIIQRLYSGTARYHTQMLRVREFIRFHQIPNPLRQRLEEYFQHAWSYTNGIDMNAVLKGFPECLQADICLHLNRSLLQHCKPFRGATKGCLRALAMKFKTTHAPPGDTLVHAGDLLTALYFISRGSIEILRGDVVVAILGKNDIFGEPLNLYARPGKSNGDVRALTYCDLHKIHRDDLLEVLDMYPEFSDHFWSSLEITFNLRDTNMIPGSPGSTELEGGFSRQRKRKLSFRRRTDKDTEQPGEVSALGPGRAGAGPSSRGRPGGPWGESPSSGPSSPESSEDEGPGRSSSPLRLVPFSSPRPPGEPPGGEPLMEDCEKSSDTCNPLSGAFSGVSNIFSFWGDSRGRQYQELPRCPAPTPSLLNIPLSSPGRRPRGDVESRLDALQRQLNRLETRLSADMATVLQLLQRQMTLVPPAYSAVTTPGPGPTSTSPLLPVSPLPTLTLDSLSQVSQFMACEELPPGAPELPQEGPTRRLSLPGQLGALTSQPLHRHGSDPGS

SMILES | hERG current change (%, negative = inhibition) at 1uM [%]
COc1ccc(/C=N/NC(=O)CCn2cnc(-c3ccccc3)c2-c2ccccc2)cc1OC | 7.62
Cc1cc(C)c(OCC(=O)N2CCN(c3ncc(C(F)(F)F)cc3Cl)CC2)c(C)c1 | -0.997
COc1ccc2c(c1)C(C)=CC(C)(C)N2C(=O)Nc1ccccc1 | -3.18
CCCCc1nnc(NC(=O)c2oc3ccccc3c2C)s1 | 9.46
Cc1ccc(-c2nnc3cccc(Cl)n23)cc1 | 3.59
O=c1[nH]c(=S)[nH]c(O)c1N=Nc1ccc(S(=O)(=O)N2CCc3ccccc32)cc1 | 1.2
CCC(C)(C)NC(=O)C(c1ccc(OC)cc1)N(C(=O)CCC(=O)Nc1cc(C)on1)c1ccc2c(c1)OCO2 (centres unmarked) | 7.04
O=C1Nc2cc3c(cc2Sc2ccccc21)OCCO3 | 1.55
CCOC(=O)CNC(=O)CCNS(=O)(=O)c1ccc2c(c1)c(=O)n(C)c(=O)n2C | 15.7
CCCNC(=O)c1cc(-c2ccco2)on1 | 4.88
CC(OC(=O)c1ccccc1NS(=O)(=O)c1cccc(C(F)(F)F)c1)C(=O)N(C)Cc1ccccc1 (centres unmarked) | 8.66
COc1ccc2nc(N3CCN(C(=O)C4COc5ccccc5O4)CC3)sc2c1 (centres unmarked) | -20.9
CCn1nc(C)cc1C(=O)N1CCCC(C(=O)c2ccc3ccccc3c2)C1 (centres unmarked) | -1.85
CCc1noc(C)c1C(=O)N1CCN(S(=O)(=O)c2cccs2)CC1 | 3.89
Cc1ccc(C)c(OCCC(=O)Nc2ccc3c(c2)OCO3)c1 | -1.16
Cc1nn(-c2cc(N3CCCC3)ccc2[N+](=O)[O-])c(=O)c2ccccc12 | 13.4
CCOC(=O)C1=C(C)N(CCCC(=O)O)C(=O)NC1c1ccc(Cl)cc1Cl (centres unmarked) | 13.5
O=C(NCc1ccc(F)cc1)C1CC(=O)N(C2CCCCC2)C1 (centres unmarked) | 16.7
Cn1cccc1Cc1nnc(SCC(=O)NC2CCCCC2)n1CCc1ccccc1 | -5.47
COc1cc(-c2nc(S(=O)(=O)c3ccc(Cl)cc3)c(N(C)C)o2)cc(OC)c1OC | 9.93
Cn1nc(C(=O)N2CCN(S(=O)(=O)c3ccccc3)CC2)c2ccccc2c1=O | -2.03
COc1cc(/C=C2\SC(=O)N(CC(=O)Nc3ccccc3F)C2=O)cc(Cl)c1O | 16.8
Cn1c(SCC(=O)N2CCCCC2)nc2cccnc21 | 15.3

SMILES | hERG current change (%, negative = inhibition) at 1uM [%]
COc1ccc(CN2C(=O)c3c(c(C)n(C)c3C)C2C(=O)NC2CCC(C)CC2)cc1 (centres unmarked) | 8.33
Cc1ccc(S(=O)(=O)N(CCC(=O)O)c2ccccc2)cc1 | 4.11
Cc1ccc(CNC(=O)c2cc(-c3ccccc3)nn2Cc2cc(C)no2)cc1 | 11
O=C1/C(=C/c2cccnc2)SC(=NCc2ccccc2)N1Cc1ccccc1 | 12.4
Nc1c(C(=O)O)ccc2c1C(=O)c1ccccc1C2=O | 10.7
Cc1ccc(C)c(NC(=O)Cn2nnc(C(=O)Nc3c(C)cccc3C)c2N)c1 | -0.358
COc1ccc(NC(=S)NCC2CCCO2)c(C)c1 (centres unmarked) | 4.6
CCC(=O)N1CCc2cc(S(=O)(=O)N3CCCC3)ccc21 | 20.3
Clc1cccc(Cl)c1CSc1nnc(/C=C/c2ccccc2)o1 | 14.2
O=C(Nc1cc(Br)ccc1O)c1cc(-c2cccs2)on1 | 2.24
CCOc1ccc(S(=O)(=O)N(C(=O)c2ccco2)c2cc3sc(=O)oc3c3ccccc23)cc1 | 13
COc1ccc(-n2cnc3sc4c(c3c2=O)CCCC4)cc1 | 13.6
Cc1ccc(NC(=O)Nn2cnnc2)c(C)c1 | 15.2
CC(O)CNC(=O)c1ccc(-c2nn(C)c(=O)c3ccccc23)cc1 (centres unmarked) | 3.91
Cc1ccc([N+](=O)[O-])cc1S(=O)(=O)Nc1cccc(-c2ccc(N3CCCC3)nn2)c1 | 15.7
Cc1ccc(CSc2nnc(-c3ccc4c(c3)OCO4)o2)cc1 | 4.61
Cc1ccc(NC(=O)C2CCN(C(=O)N3CCOc4ccccc43)CC2)cc1 | 13.3
Cc1[nH]c2ccccc2c1C(=O)CNc1nccs1 | 2.35
CCOC(=O)C1=C(C)C(c2ccccc2OC)NC(=O)N1 (centres unmarked) | 15.8
COc1ccc(NC(=S)Nc2ncccc2C)cc1OC | 14.1
CCCCNC(=O)Nc1cc(C(=O)OC)ccc1C | 9.29
Cc1cc(C)n(-c2nc3ccccc3nc2Nc2ccc(CC(=O)O)cc2)n1 | 9.35
CC(Oc1ccc2ccc(=O)oc2c1)C(=O)NCCN1CCOCC1 (centres unmarked) | 7.43

SMILES | hERG current change (%, negative = inhibition) at 1uM [%]
CSC1=NC(C)(C)C=C(/C=C/c2ccc(Cl)cc2Cl)N1 | 11.8
Cc1ccccc1C(=O)N[C@H](C(=O)OCC(=O)c1ccc[nH]1)C(C)C | -1.23
Cc1ccccc1N1C(=O)[C@@H]2Cc3ccccc3CN2C1=O | 8.41
Cc1ccc(CC(=O)Nc2ccc(F)c([N+](=O)[O-])c2)cc1C | 14.4
CCc1c(C)nc(SCC(=O)N2CCCCC2)[nH]c1=O | 9.89
CCCNC(=O)C1CC(=O)N(c2ccc(OCc3ccc(F)cc3)cc2)C1 (centres unmarked) | 14.3
CCCC(C)NC(=O)COc1ccc(S(=O)(=O)c2ccc(OCC(=O)NC(C)CCC)cc2)cc1 (centres unmarked) | 6.05
COc1ccc(S(=O)(=O)N2CCC(C(=O)NCC3CCCO3)CC2)cc1Cl (centres unmarked) | 15.1
CC(C)(CO)CNC(=O)c1ccc(OC2CCN(C(=O)C3CC3)CC2)cc1 | 7.96
CC(C)CCOc1ccc(C(=O)NCC(c2ccco2)N(C)C)cc1 (centres unmarked) | 13
Cc1ccccc1NC(=O)c1cccc(C(=O)Nc2ccccc2C)c1 | 5.58
O=C(O)c1ccc2c(c1)C(=O)N(N1C(=O)c3ccccc3C1=O)C2=O | -0.831
CCC(C)NC(=O)N1c2ccccc2Sc2ccccc21 (centres unmarked) | 6.52
CC(C)(C)c1cc(C(=O)N/N=C/c2ccco2)n[nH]1 | 17.3
COCc1ccc(CN2CCCC(C(=O)c3sccc3C)C2)o1 (centres unmarked) | 8.68
CCCCc1ccc(NC(=S)N2CCN(c3ncccn3)CC2)cc1 | 12.8
O=C(CCC(=O)N1CCOc2ccc(Cl)cc21)N1CCC2(CC1)OCCO2 | 3.97
O=C(Nc1nccs1)c1cc2c(s1)-c1ccccc1OC2 | 15.8
CCC(=NCCOc1ccc(Cl)cc1)c1c(O)n(C)c(=O)n(C)c1=O | 8.31
COc1ccccc1N1CCN(C2=CC(=O)CCC2)CC1 | 8.25
Cn1c(NCCCN2CCOCC2)nc2c1c(=O)n(Cc1ccc(Cl)c(Cl)c1)c(=O)n2C | -10.3
O=C(CSc1ccsc1[N+](=O)[O-])N1CCCCCC1 | 15.7
c1ccc(N2CCN(c3nc4cc5c(cc4s3)OCCO5)CC2)cc1 | 0.592

SMILES | hERG current change (%, negative = inhibition) at 1uM [%]
Nn1c(SCC(=O)N2CCOCC2)nnc1-c1ccc(Cl)cc1Cl | 6.43
COc1cccc(CN2CCN(C(=O)c3cc(-c4cccnc4)nc4ccc(C)cc34)CC2)c1 | 5.22
COc1ccc2cc(C(=O)N3CCN(c4cccc(C)c4C)CC3)[nH]c2c1 | 0.912
COc1ccc(NCc2nnc(SCC(=O)Nc3cc(C)cc(C)c3)o2)cc1 | 5.1
Cc1ccc(CSCC(=O)NCCc2ccccc2)cc1 | 10.7
CCOC(=O)Nc1ccc2c(c1)ncn2C1CCCCC1 | 0.84
O=C1OCCC1Sc1nnc(-c2ccccc2Br)n1Cc1ccccc1 (centres unmarked) | -1.27
Cl.NCCC(=O)N1c2ccccc2Sc2ccccc21 | 9.1
COc1ccc(/C(N)=N/OC(=O)CCCc2ccccc2)cc1 | 10.6
COc1cccc(C(=O)Oc2c(Br)cc(Br)cc2/C=N/NC(=O)c2cc(C)[nH]n2)c1 | 8.81
COc1ccc(F)cc1Cn1nc(C(=O)O)c2ccccc2c1=O | 16.4
CCOC(=O)N1CCN(C(=S)Nc2ccc(C)cc2)CC1 | 8.96
CCC(Sc1nncn1C)C(=O)Nc1nnc(-c2ccc(Cl)cc2)s1 (centres unmarked) | 12
COc1cccc(NC(=O)c2ccccc2Br)c1 | 11
Cc1nnc(SC(C)C(=O)NC2CCCCC2C)n1N (centres unmarked) | 11.1
CCCOC(=O)c1ccc(NC(=O)C(=O)NCC2CCCO2)cc1 (centres unmarked) | 14
CCOC(=O)c1sc(NC(=O)c2ccc(S(=O)(=O)N3CCCCCC3)cc2)nc1-c1ccccc1 | 11
CCOc1ccc(NC(=S)NCc2ccc3c(c2)OCO3)cc1 | 10.6
COc1ccc(N2C(=O)CC(Sc3nc4ccccc4s3)C2=O)cc1 (centres unmarked) | 5.76
Cc1ccc(-n2ncc3c(N4CCCC(C)C4)ncnc32)c(C)c1 (centres unmarked) | 7.5
